# Source: the supplement of paper PMC8728848
# This is one part of the list.
# Columns and labels:
# Assay in all cases: glycan array binding signal (z-score within array); higher = stronger binding
# Details in all cases: glycan notation: IUPAC condensed, linker removed
# [1] = molecular target: Gal(a1-6)Glc
# How it was run: (§1)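 Glycan array binding is given as a within-array Z-score, which can be read as non-binding when negative. The arrays, 3228 of them, came from the Consortium for Functional Glycomics database and were retained only where the protein sequence was available. Z-scores were averaged across arrays of the same protein sequence at different concentrations or buffers and across linkers.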
# [2] = molecular target: Gal(b1-2)Gal
# How it was run: as §1
# [3] = molecular target: Gal(b1-3)Gal
# How it was run: as §1
# [4] = molecular target: Gal(b1-3)Gal(b1-4)GlcNAc
# How it was run: as §1
# [5] = molecular target: Gal(b1-3)GalNAc
# How it was run: as §1
# [6] = molecular target: Gal(b1-3)GalNAc(b1-3)Gal(a1-4)Gal(b1-4)Glc
# How it was run: as §1
# [7] = molecular target: Gal(b1-3)GalNAc(b1-4)Gal(b1-4)Glc
# How it was run: as §1
# [8] = molecular target: Gal(b1-3)GalNAc(b1-4)[Neu5Ac(a2-3)]Gal(b1-4)Glc
# How it was run: as §1
# [9] = molecular target: Gal(b1-3)GlcNAc
# How it was run: as §1
# [10] = molecular target: Gal(b1-3)GlcNAc(b1-2)Man(a1-3)[Gal(b1-3)GlcNAc(b1-2)Man(a1-6)]Man(b1-4)GlcNAc(b1-4)GlcNAc
# How it was run: as §1
# [11] = molecular target: Gal(b1-3)GlcNAc(b1-3)Gal(b1-3)GlcNAc
# How it was run: as §1
# [12] = molecular target: Gal(b1-3)GlcNAc(b1-3)Gal(b1-4)Glc
# How it was run: as §1
# [13] = molecular target: Gal(b1-3)GlcNAc(b1-3)Gal(b1-4)GlcNAc
# How it was run: as §1
# [14] = molecular target: Gal(b1-3)[Fuc(a1-4)]GlcNAc
# How it was run: as §1
# [15] = molecular target: Gal(b1-3)[Fuc(a1-4)]GlcNAc(b1-3)Gal(b1-3)[Fuc(a1-4)]GlcNAc
# How it was run: as §1
# [16] = molecular target: Gal(b1-3)[Fuc(a1-4)]GlcNAc(b1-3)Gal(b1-4)GlcNAc
# How it was run: as §1
# [17] = molecular target: Gal(b1-3)[Fuc(a1-4)]GlcNAc(b1-3)Gal(b1-4)[Fuc(a1-3)]GlcNAc
# How it was run: as §1
# [18] = molecular target: Gal(b1-3)[GlcNAc(b1-6)]GalNAc
# How it was run: as §1
# [19] = molecular target: Gal(b1-3)[Neu5Ac(a2-6)]GalNAc
# How it was run: as §1
# [20] = molecular target: Gal(b1-3)[Neu5Ac(a2-6)]GlcNAc(b1-6)Gal(b1-4)Glc
# How it was run: as §1
# [21] = molecular target: Gal(b1-3)[Neu5Ac(b2-6)]GalNAc
# How it was run: as §1
# [22] = molecular target: Gal(b1-4)GalNAc(a1-3)[Fuc(a1-2)]Gal(b1-4)GlcNAc
# How it was run: as §1
# [23] = molecular target: Gal(b1-4)GalNAc(b1-3)[Fuc(a1-2)]Gal(b1-4)GlcNAc
# How it was run: as §1
# [24] = molecular target: Gal(b1-4)Glc
# How it was run: as §1
# [25] = molecular target: Gal(b1-4)Glc6S
# How it was run: as §1
# [26] = molecular target: Gal(b1-4)GlcNAc
# How it was run: as §1
# [27] = molecular target: Gal(b1-4)GlcNAc(a1-6)Gal(b1-4)GlcNAc
# How it was run: as §1
# [28] = molecular target: Gal(b1-4)GlcNAc(b1-2)Man(a1-3)[Gal(b1-4)GlcNAc(b1-2)Man(a1-6)]Man(b1-4)GlcNAc(b1-4)GlcNAc
# How it was run: as §1
# [29] = molecular target: Gal(b1-4)GlcNAc(b1-3)Gal(b1-3)GlcNAc
# How it was run: as §1
# [30] = molecular target: Gal(b1-4)GlcNAc(b1-3)Gal(b1-4)Glc
# How it was run: as §1
# [31] = molecular target: Gal(b1-4)GlcNAc(b1-3)Gal(b1-4)GlcNAc
# How it was run: as §1
# [32] = molecular target: Gal(b1-4)GlcNAc(b1-3)Gal(b1-4)GlcNAc(b1-3)Gal(b1-4)GlcNAc
# How it was run: as §1
# [33] = molecular target: Gal(b1-4)GlcNAc(b1-3)Gal(b1-4)[Fuc(a1-3)]GlcNAc(b1-3)Gal(b1-4)[Fuc(a1-3)]GlcNAc
# How it was run: as §1
# [34] = molecular target: Gal(b1-4)GlcNAc(b1-3)GalNAc
# How it was run: as §1
# [35] = molecular target: Gal(b1-4)GlcNAc(b1-3)[Gal(b1-4)GlcNAc(b1-6)]Gal(b1-4)GlcNAc
# How it was run: as §1
# [36] = molecular target: Gal(b1-4)GlcNAc(b1-3)[Gal(b1-4)GlcNAc(b1-6)]GalNAc
# How it was run: as §1
# [37] = molecular target: Gal(b1-4)GlcNAc(b1-3)[GlcNAc(b1-6)]Gal(b1-4)GlcNAc
# How it was run: as §1
# [38] = molecular target: Gal(b1-4)GlcNAc(b1-6)Gal(b1-4)GlcNAc
# How it was run: as §1
# [39] = molecular target: Gal(b1-4)GlcNAc(b1-6)Gal(b1-4)GlcNAc(b1-6)GalNAc
# How it was run: as §1
# [40] = molecular target: Gal(b1-4)GlcNAc(b1-6)GalNAc
# How it was run: as §1
# [41] = molecular target: Gal(b1-4)GlcNAc(b1-6)[Gal(b1-3)]GalNAc
# How it was run: as §1
# [42] = molecular target: Gal3S(b1-3)GalNAc
# How it was run: as §1
# [43] = molecular target: Gal3S(b1-3)GlcNAc
# How it was run: as §1
# [44] = molecular target: Gal3S(b1-3)[Fuc(a1-4)]GlcNAc
# How it was run: as §1
# [45] = molecular target: Gal3S(b1-4)Glc
# How it was run: as §1
# [46] = molecular target: Gal3S(b1-4)Glc6S
# How it was run: as §1
# [47] = molecular target: Gal3S(b1-4)GlcNAc
# How it was run: as §1
# [48] = molecular target: Gal3S(b1-4)GlcNAc6S
# How it was run: as §1
# [49] = molecular target: Gal3S(b1-4)[Fuc(a1-3)]Glc
# How it was run: as §1
# [50] = molecular target: Gal3S4S(b1-4)GlcNAc
# How it was run: as §1
# [51] = molecular target: Gal3S6S(b1-4)GlcNAc
# How it was run: as §1
# [52] = molecular target: Gal3S6S(b1-4)GlcNAc6S
# How it was run: as §1
# [53] = molecular target: Gal4S(b1-4)GlcNAc
# How it was run: as §1
# [54] = molecular target: Gal4S6S(b1-4)GlcNAc
# How it was run: as §1
# [55] = molecular target: Gal6S(b1-4)Glc
# How it was run: as §1
# [56] = molecular target: Gal6S(b1-4)Glc6S
# How it was run: as §1
# [57] = molecular target: Gal6S(b1-4)GlcNAc
# How it was run: as §1
# [58] = molecular target: Gal6S(b1-4)GlcNAc6S
# How it was run: as §1
# [59] = molecular target: GalNAc(a1-3)Gal
# How it was run: as §1
# [60] = molecular target: GalNAc(a1-3)GalNAc
# How it was run: as §1
binder,measurement,setting,value
"E-Selectin (Mus musculus), Q00690 (protein) MNASRFLSALVFVLLAGESTAWYYNASSELMTYDEASAYCQRDYTHLVAIQNKEEINYLNSNLKHSPSYYWIGIRKVNNVWIWVGTGKPLTEEAQNWAPGEPNNKQRNEDCVEIYIQRTKDSGMWNDERCNKKKLALCYTASCTNASCSGHGECIETINSYTCKCHPGFLGPNCEQAVTCKPQEHPDYGSLNCSHPFGPFSYNSSCSFGCKRGYLPSSMETTVRCTSSGEWSAPAPACHVVECEALTHPAHGIRKCSSNPGSYPWNTTCTFDCVEGYRRVGAQNLQCTSSGIWDNETPSCKAVTCDAIPQPQNGFVSCSHSTAGELAFKSSCNFTCEQSFTLQGPAQVECSAQGQWTPQIPVCKAVQCEALSAPQQGNMKCLPSASGPFQNGSSCEFSCEEGFELKGSRRLQCGPRGEWDSKKPTCSAVKCDDVPRPQNGVMECAHATTGEFTYKSSCAFQCNEGFSLHGSAQLECTSQGKWTQEVPSCQVVQCPSLDVPGKMNMSCSGTAVFGTVCEFTCPDDWTLNGSAVLTCGATGRWSGMPPTCEAPVSPTRPLVVALSAAGTSLLTSSSLLYLLMRYFRKKAKKFVPASSCQSLQSFENYHVPSYNV",glycan array binding signal (z-score),[1],-0.206
same,glycan array binding signal (z-score),[2],-0.269
same,glycan array binding signal (z-score),[3],-0.313
same,glycan array binding signal (z-score),[4],-0.355
same,glycan array binding signal (z-score),[5],-0.328
same,glycan array binding signal (z-score),[6],-0.371
same,glycan array binding signal (z-score),[7],-0.317
same,glycan array binding signal (z-score),[8],-0.367
same,glycan array binding signal (z-score),[9],-0.285
same,glycan array binding signal (z-score),[10],-0.148
same,glycan array binding signal (z-score),[11],-0.309
same,glycan array binding signal (z-score),[12],0.57
same,glycan array binding signal (z-score),[13],-0.253
same,glycan array binding signal (z-score),[14],1.41
same,glycan array binding signal (z-score),[15],1.06
same,glycan array binding signal (z-score),[16],0.445
same,glycan array binding signal (z-score),[17],1.08
same,glycan array binding signal (z-score),[18],-0.355
same,glycan array binding signal (z-score),[19],-0.271
same,glycan array binding signal (z-score),[20],-0.322
same,glycan array binding signal (z-score),[21],-0.337
same,glycan array binding signal (z-score),[22],-0.166
same,glycan array binding signal (z-score),[23],-0.245
same,glycan array binding signal (z-score),[24],-0.317
same,glycan array binding signal (z-score),[25],-0.23
same,glycan array binding signal (z-score),[26],-0.334
same,glycan array binding signal (z-score),[27],-0.318
same,glycan array binding signal (z-score),[28],-0.298
same,glycan array binding signal (z-score),[29],-0.367
same,glycan array binding signal (z-score),[30],-0.299
same,glycan array binding signal (z-score),[31],-0.293
same,glycan array binding signal (z-score),[32],-0.322
same,glycan array binding signal (z-score),[33],-0.342
same,glycan array binding signal (z-score),[34],-0.338
same,glycan array binding signal (z-score),[35],-0.259
same,glycan array binding signal (z-score),[36],-0.376
same,glycan array binding signal (z-score),[37],-0.127
same,glycan array binding signal (z-score),[38],-0.3
same,glycan array binding signal (z-score),[39],-0.109
same,glycan array binding signal (z-score),[40],-0.287
same,glycan array binding signal (z-score),[41],-0.294
same,glycan array binding signal (z-score),[42],-0.365
same,glycan array binding signal (z-score),[43],-0.23
same,glycan array binding signal (z-score),[44],4.55
same,glycan array binding signal (z-score),[45],-0.261
same,glycan array binding signal (z-score),[46],-0.245
same,glycan array binding signal (z-score),[47],-0.309
same,glycan array binding signal (z-score),[48],-0.241
same,glycan array binding signal (z-score),[49],3.13
same,glycan array binding signal (z-score),[50],-0.301
same,glycan array binding signal (z-score),[51],-0.192
same,glycan array binding signal (z-score),[52],0.03
same,glycan array binding signal (z-score),[53],-0.17
same,glycan array binding signal (z-score),[54],-0.159
same,glycan array binding signal (z-score),[55],-0.319
same,glycan array binding signal (z-score),[56],-0.175
same,glycan array binding signal (z-score),[57],-0.326
same,glycan array binding signal (z-score),[58],-0.262
same,glycan array binding signal (z-score),[59],-0.289
same,glycan array binding signal (z-score),[60],-0.295
